Common to all, as to test: protein-binding microarray (PBM)
Holding throughout (details): PBM: ~300 nM protein, 6 mM HEPES pH 7.8, 80 mM KCl, 0.5 mM EDTA, 0.5 mM EGTA, 6% glycerol, 35 ng/ul poly-dIdC, 1% milk, 1 h, room temperature; Ap Aiptasia and Nv Nematostella (sea anemones) / Co Capsaspora / Aq Amphimedon (sponge) / Dm Drosophila / Hu human; RHD is the Rel homology domain; high values mean tight binding; most listed sequences are background and not binding sites; double strand, one strand shown

Experiment [1] has as its target T1, GST-Ap-NF-kB RHD (UniProt A0A913YAJ5).
T1 sequence: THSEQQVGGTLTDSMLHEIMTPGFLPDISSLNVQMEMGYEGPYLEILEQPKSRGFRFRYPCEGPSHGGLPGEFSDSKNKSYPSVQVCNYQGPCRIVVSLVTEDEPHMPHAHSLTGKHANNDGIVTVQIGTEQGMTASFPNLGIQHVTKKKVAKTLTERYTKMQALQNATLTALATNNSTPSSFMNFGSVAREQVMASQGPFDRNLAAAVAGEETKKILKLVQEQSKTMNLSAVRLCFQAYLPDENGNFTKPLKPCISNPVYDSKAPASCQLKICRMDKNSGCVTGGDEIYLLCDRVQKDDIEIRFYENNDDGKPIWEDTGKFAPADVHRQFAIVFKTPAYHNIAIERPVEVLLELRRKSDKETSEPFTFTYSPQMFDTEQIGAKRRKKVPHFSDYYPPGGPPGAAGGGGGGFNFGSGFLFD

Experiment [2] addresses T2, GST-Nv-NF-kB (Cys allele) (UniProt E5G601).
T2 sequence: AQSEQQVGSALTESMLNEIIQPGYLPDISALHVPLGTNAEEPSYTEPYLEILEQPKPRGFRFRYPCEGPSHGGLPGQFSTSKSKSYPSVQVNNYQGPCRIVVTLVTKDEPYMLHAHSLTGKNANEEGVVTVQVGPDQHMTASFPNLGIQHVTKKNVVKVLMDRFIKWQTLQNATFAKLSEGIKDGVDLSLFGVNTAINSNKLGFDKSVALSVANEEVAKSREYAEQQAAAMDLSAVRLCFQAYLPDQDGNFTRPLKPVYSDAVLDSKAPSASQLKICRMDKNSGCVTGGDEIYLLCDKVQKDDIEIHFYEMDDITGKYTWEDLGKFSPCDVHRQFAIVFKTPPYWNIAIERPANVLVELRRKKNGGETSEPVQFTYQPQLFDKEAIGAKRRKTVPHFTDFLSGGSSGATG

Experiment [3] deals with T3, GST-Co-NF-kB (UniProt F1ARL5).
T3 sequence: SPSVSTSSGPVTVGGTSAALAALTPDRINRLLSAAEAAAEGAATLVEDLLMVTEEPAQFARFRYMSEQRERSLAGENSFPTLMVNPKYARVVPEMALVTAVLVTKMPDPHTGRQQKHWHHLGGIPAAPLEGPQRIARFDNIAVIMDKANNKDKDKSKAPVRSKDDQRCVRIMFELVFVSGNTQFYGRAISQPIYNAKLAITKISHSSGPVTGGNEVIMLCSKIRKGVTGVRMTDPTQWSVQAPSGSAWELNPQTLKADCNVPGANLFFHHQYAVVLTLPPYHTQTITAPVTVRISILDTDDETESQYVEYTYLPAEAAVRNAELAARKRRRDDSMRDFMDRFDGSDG

Experiment [4] addresses T4, GST-Dm-Relish (UniProt Q94527).
T4 sequence: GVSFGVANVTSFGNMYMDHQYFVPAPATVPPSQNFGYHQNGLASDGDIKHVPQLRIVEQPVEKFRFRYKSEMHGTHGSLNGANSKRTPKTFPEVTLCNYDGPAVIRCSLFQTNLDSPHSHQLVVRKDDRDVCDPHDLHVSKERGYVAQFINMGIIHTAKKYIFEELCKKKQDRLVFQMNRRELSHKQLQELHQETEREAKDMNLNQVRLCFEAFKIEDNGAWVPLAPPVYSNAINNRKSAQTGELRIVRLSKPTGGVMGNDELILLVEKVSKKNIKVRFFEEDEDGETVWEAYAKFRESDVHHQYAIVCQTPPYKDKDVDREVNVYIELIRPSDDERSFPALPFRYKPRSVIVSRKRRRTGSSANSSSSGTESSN

The list shows a part of the results, in another mix than the full data. The list includes weakly bound sequences.

We go through 30 sequences from article PMC5700166.

With “CCGATTAACATCAAAAATCCCCGTGATGTTAATCGGGTCTTGATTCGCTTGACGCTGCTG”, the binding signal in experiment [1] worked out at 9.77 z-score; in experiment [2], 10.8 z-score; in experiment [3], 6.22 z-score; in experiment [4], 10.1 z-score.
As to “CCGATTAACATCACTATTTCCCCTGATGTTAATCGGGTCTTGATTCGCTTGACGCTGCTG”, the binding signal in experiment [1] amounted to 6.35 z-score; in experiment [2] it was 7.42 z-score; in experiment [3], 8.77 z-score; in experiment [4], 3.62 z-score.
The matching figures for “CCGATTAACATCAAAAGCCCCCCTGATGTTAATCGGGTCTTGATTCGCTTGACGCTGCTG”: 5.96 z-score, 6 z-score, 4.6 z-score and 8.42 z-score.
Consider “CCGATTAACATCAAGGAAAAGCCTGATGTTAATCGGGTCTTGATTCGCTTGACGCTGCTG”, for which the binding signal was -0.0671 z-score in experiment [1], 0.176 z-score in experiment [2], -0.517 z-score in experiment [3] and 0.139 z-score in experiment [4].
In the case of “CCGATTAACATCACGGAACTTCCTGATGTTAATCGGGTCTTGATTCGCTTGACGCTGCTG”, the binding signal is 0.181 z-score in experiment [1], -0.052 z-score in experiment [2], 0.00121 z-score in experiment [3] and 0.329 z-score in experiment [4].
Turning to “CCGATTAACATCAGGAACTTCCATGATGTTAATCGGGTCTTGATTCGCTTGACGCTGCTG”, the binding signal in experiment [1] is 0.359 z-score; in experiment [2], -0.409 z-score; in experiment [3], -0.507 z-score; in experiment [4], 0.213 z-score.
Turning to “CCGATTAACATCAAATTTTCCGGTGATGTTAATCGGGTCTTGATTCGCTTGACGCTGCTG”, the binding signal in experiment [1] worked out at 0.592 z-score; in experiment [2], 0.841 z-score; in experiment [3] it was 0.761 z-score; in experiment [4], 1.54 z-score.
In the case of “CCGATTAACATCAAGTTCCCCCCTGATGTTAATCGGGTCTTGATTCGCTTGACGCTGCTG”, the binding signal in experiment [1] amounted to 7.37 z-score; in experiment [2], 6.39 z-score; in experiment [3] it was 10.1 z-score; in experiment [4], 6.95 z-score.
For the sequence “CCGATTAACATCAAGATCCCTTGTGATGTTAATCGGGTCTTGATTCGCTTGACGCTGCTG”, the binding signal is 0.746 z-score in experiment [1], -0.481 z-score in experiment [2], -0.154 z-score in experiment [3] and 0.695 z-score in experiment [4].
The matching figures for “CCGATTAACATCAGGAAATTCTATGATGTTAATCGGGTCTTGATTCGCTTGACGCTGCTG”: 0.15 z-score, -0.166 z-score, 0.294 z-score and 0.408 z-score.
Consider “CCGATTAACATCAGGCAATGCCCTGATGTTAATCGGGTCTTGATTCGCTTGACGCTGCTG”, for which the binding signal is -0.426 z-score in experiment [1], 0.556 z-score in experiment [2], -0.734 z-score in experiment [3] and -0.774 z-score in experiment [4].
Take “CCGATTAACATCAAATTTCCGGATGATGTTAATCGGGTCTTGATTCGCTTGACGCTGCTG”: the binding signal is -0.316 z-score in experiment [1], 0.228 z-score in experiment [2], -0.217 z-score in experiment [3] and 0.195 z-score in experiment [4].
In the case of “CCGATTAACATCAAAATTTCCCCTGATGTTAATCGGGTCTTGATTCGCTTGACGCTGCTG”, the binding signal in experiment [1] came to 10.2 z-score; in experiment [2] it was 11.6 z-score; in experiment [3] it was 10.6 z-score; in experiment [4], 8.41 z-score.
The matching figures for “CCGATTAACATCAGGATTTTCCATGATGTTAATCGGGTCTTGATTCGCTTGACGCTGCTG”: -0.278 z-score, -0.683 z-score, 0.229 z-score and 1.28 z-score.
With “CCGATTAACATCACTAAAATTCCTGATGTTAATCGGGTCTTGATTCGCTTGACGCTGCTG”, the binding signal in experiment [1] worked out at 0.381 z-score; in experiment [2], 0.28 z-score; in experiment [3], 0.642 z-score; in experiment [4], 0.634 z-score.
As to “CCGATTAACATCAAAGAATTTCCTGATGTTAATCGGGTCTTGATTCGCTTGACGCTGCTG”, the binding signal was determined as 0.0491 z-score in experiment [1], 0.0546 z-score in experiment [2], 0.615 z-score in experiment [3] and 0.631 z-score in experiment [4].
Consider “CCGATTAACATCACCCCTCCCCGTGATGTTAATCGGGTCTTGATTCGCTTGACGCTGCTG”, for which the binding signal is 5.01 z-score in experiment [1], 3.48 z-score in experiment [2], 4.15 z-score in experiment [3] and 3.47 z-score in experiment [4].
With “CCGATTAACATCACTAAATTTCCTGATGTTAATCGGGTCTTGATTCGCTTGACGCTGCTG”, the binding signal is 0.407 z-score in experiment [1], 0.136 z-score in experiment [2], 0.407 z-score in experiment [3] and 0.0103 z-score in experiment [4].
On to “CCGATTAACATCAAGAATTTCCGTGATGTTAATCGGGTCTTGATTCGCTTGACGCTGCTG”, for which the binding signal is 0.672 z-score in experiment [1], 0.364 z-score in experiment [2], 0.201 z-score in experiment [3] and 0.43 z-score in experiment [4].
Consider “CCGATTAACATCACGGAATGTCCTGATGTTAATCGGGTCTTGATTCGCTTGACGCTGCTG”, for which the binding signal was -0.211 z-score in experiment [1], 0.078 z-score in experiment [2], -0.433 z-score in experiment [3] and 0.367 z-score in experiment [4].
In the case of “CCGATTAACATCAGGAAACTTCCTGATGTTAATCGGGTCTTGATTCGCTTGACGCTGCTG”, the binding signal was -0.386 z-score in experiment [1], 0.236 z-score in experiment [2], -0.296 z-score in experiment [3] and 0.358 z-score in experiment [4].
With “CCGATTAACATCAGGAAGTGCCCTGATGTTAATCGGGTCTTGATTCGCTTGACGCTGCTG”, the binding signal is 0.564 z-score in experiment [1], 0.471 z-score in experiment [2], -0.43 z-score in experiment [3] and -0.142 z-score in experiment [4].
For the sequence “CCGATTAACATCACGGGATGTCCTGATGTTAATCGGGTCTTGATTCGCTTGACGCTGCTG”, the binding signal was 1.47 z-score in experiment [1], 0.269 z-score in experiment [2], 0.351 z-score in experiment [3] and 3.42 z-score in experiment [4].
For the sequence “CCGATTAACATCAAGGAAATTTCTGATGTTAATCGGGTCTTGATTCGCTTGACGCTGCTG”, the binding signal stood at 0.254 z-score in experiment [1], 0.156 z-score in experiment [2], 0.84 z-score in experiment [3] and 0.908 z-score in experiment [4].
For “CCGATTAACATCAGGAATCTCCATGATGTTAATCGGGTCTTGATTCGCTTGACGCTGCTG” the same measures were 0.334 z-score, 0.3 z-score, 0.488 z-score and 1.01 z-score.
Turning to “CCGATTAACATCAGGACAGTCCATGATGTTAATCGGGTCTTGATTCGCTTGACGCTGCTG”, the binding signal in experiment [1] is 0.0459 z-score; in experiment [2], 0.331 z-score; in experiment [3], -0.89 z-score; in experiment [4], -0.302 z-score.
“CCGATTAACATCACAGGGTTTCCTGATGTTAATCGGGTCTTGATTCGCTTGACGCTGCTG”: the binding signal was 0.684 z-score in experiment [1], 0.392 z-score in experiment [2], 0.0345 z-score in experiment [3] and 2.82 z-score in experiment [4].
Turning to “CCGATTAACATCAAAAAGTCCCTTGATGTTAATCGGGTCTTGATTCGCTTGACGCTGCTG”, the binding signal in experiment [1] is 7.48 z-score; in experiment [2], 10.3 z-score; in experiment [3] it was 1.63 z-score; in experiment [4], 8.86 z-score.
In the case of “CCGATTAACATCAAAAATTTCCTTGATGTTAATCGGGTCTTGATTCGCTTGACGCTGCTG”, the binding signal in experiment [1] stood at 0.298 z-score; in experiment [2], 0.606 z-score; in experiment [3] it was 0.741 z-score; in experiment [4], 1.94 z-score.
Consider “CCGATTAACATCACGGAAAGTCCTGATGTTAATCGGGTCTTGATTCGCTTGACGCTGCTG”, for which the binding signal was 0.606 z-score in experiment [1], 0.42 z-score in experiment [2], -0.444 z-score in experiment [3] and 3.12 z-score in experiment [4].
